Some of the results follow. At the low end of the ranking, values are background and their order means little. The protein was read in a cell extract, so binding may be indirect.

For this assay, the target named is T1, HNF4alpha2 (COS-7 nuclear extract) (UniProt P41235).
T1 sequence: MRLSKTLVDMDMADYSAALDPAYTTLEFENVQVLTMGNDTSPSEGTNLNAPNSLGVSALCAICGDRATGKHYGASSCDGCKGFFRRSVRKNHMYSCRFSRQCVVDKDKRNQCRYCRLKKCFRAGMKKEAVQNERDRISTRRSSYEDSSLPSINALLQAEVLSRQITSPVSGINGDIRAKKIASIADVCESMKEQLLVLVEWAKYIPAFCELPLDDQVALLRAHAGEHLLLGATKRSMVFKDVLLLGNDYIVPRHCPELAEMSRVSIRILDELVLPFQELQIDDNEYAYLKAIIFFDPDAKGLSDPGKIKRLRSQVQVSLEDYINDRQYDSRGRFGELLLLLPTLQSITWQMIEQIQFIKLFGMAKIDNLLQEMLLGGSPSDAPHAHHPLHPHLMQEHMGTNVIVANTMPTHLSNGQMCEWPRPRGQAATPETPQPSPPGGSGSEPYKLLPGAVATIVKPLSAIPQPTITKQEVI
Put plainly: protein-binding microarray. To be noted: COS-7 nuclear extract on double-stranded Agilent 4x180k PBM; binding buffer, salt, pH and temperature not given; high values mean tight binding; double strand, one strand shown; sequences stand for … in …GCCTAGGGAGATTAGAGTATCGGTCGA
Take GGGAGAGTGAGTGAGTGTGTGTGTGTAAAA: the binding signal (log2 normalized intensity) amounted to 2.5.

Take TGTGCTGCCCCCGATAGCACTATTAGTCTT: the binding signal (log2 normalized intensity) is 2.74.

For ACTGCGTCCAGCCACAATTAATGTACCCCC, the binding signal (log2 normalized intensity) came to 4.12.

For TAACCAGGGGTGGGGACCTTTGGGCTCTGA, the binding signal (log2 normalized intensity) worked out at 2.24.

Regarding GTGGTATTTGCTCTGTCATCAACGTATCTG, the binding signal (log2 normalized intensity) is 0.863.

Consider CTTTGATCTTCTTACCCCTTTGCTGATTAC, for which the binding signal (log2 normalized intensity) was found to be 2.7.

Consider AACAATGTTATCTTTTCAAGGATGTTTATA, for which the binding signal (log2 normalized intensity) was 1.07.

As to CGATAACCCTCTGGGGCCGGGAGCAGGGAG, the binding signal (log2 normalized intensity) is -1.11.

For the sequence AAGCCACGGGCTATTTGGACTAGGCAAAAG, the binding signal (log2 normalized intensity) was -0.0946.

Turning to TCACCCAGAAAAGGCTGTAAACTCACTCTG, the binding signal (log2 normalized intensity) was -1.17.

Turning to GCACAAGAGGGCAGTATTTGCTTACAGTCT, the binding signal (log2 normalized intensity) was -1.09.

On to TTATTTAAATTTCTTGAGGCATTTATTACA, for which the binding signal (log2 normalized intensity) amounted to 0.233.

Regarding ATACTCAGAGCCGCACCCAGCTTTCATCTC, the binding signal (log2 normalized intensity) is -1.19.

Regarding GGCAGTCGTGATAGTGACCACCTGGTGGAC, the binding signal (log2 normalized intensity) amounted to 1.02.

As for AGTCAAAAACCAGTTATTTCAGTTATTTAC, the binding signal (log2 normalized intensity) was 0.0871.

Regarding ATGACTCATAAAGAACAGTTATTCTTAGCT, the binding signal (log2 normalized intensity) was -1.17.

With AATTACCTGGACTCTAGAGCCAGACTAGTA, the binding signal (log2 normalized intensity) worked out at 1.26.

For the sequence GTTCTATCGGAGAACGTTCCAAACCTACAC, the binding signal (log2 normalized intensity) is -1.1.

TTTGGCCCCCAGAGCCCCGTGTCTCCCTAC: the binding signal (log2 normalized intensity) amounted to 4.6.

For the sequence AGGTGAAACTCCAGGCTCCAAGGGTATAGG, the binding signal (log2 normalized intensity) was -1.29.

Turning to ATGGGGAGCAGTGGGAGGTGAGGAAAACGG, the binding signal (log2 normalized intensity) is -0.65.

Regarding CACCCAGGCTGAAGTCCAGTAGCTCAATCA, the binding signal (log2 normalized intensity) was -1.1.

For the sequence AAGGCACAATCAGGGCTAAAGTCAGGGGCA, the binding signal (log2 normalized intensity) was -1.19.

As for AGCTGGCCTCACTAAGTCCTGCTTAGAGCA, the binding signal (log2 normalized intensity) was -1.14.

In the case of ACGTCTAGAGCTGTCCAGCAGACAATGGGA, the binding signal (log2 normalized intensity) is -0.938.

GATAGTAAAATGGACTTTGTGGGCCAAAAG: the binding signal (log2 normalized intensity) stood at 2.49.

For the sequence CAAGCCAGAAAGATGTTTGCCCCAAGATAA, the binding signal (log2 normalized intensity) was determined as 1.94.

Consider ACTCAGGCATTCTGACCTTTGTCTCCAGGC, for which the binding signal (log2 normalized intensity) was determined as 5.69.

In the case of CACACTCACAGAACACAGTGTTTGCTTTAG, the binding signal (log2 normalized intensity) was -1.11.

In the case of TCATACCACATGGATGGATTCAGATCCAGT, the binding signal (log2 normalized intensity) was -0.961.

With GGAAAGAACAGGTCAAAGGTCAGTTTCTTT, the binding signal (log2 normalized intensity) was determined as 7.28.

As for TCTGATGCGGCTTCTCATACTACTGTACTT, the binding signal (log2 normalized intensity) stood at 1.01.

Turning to GTGCACCCTGGTCTCTCTTACCCAACCAAA, the binding signal (log2 normalized intensity) worked out at 2.82.

AAGGGTAATCTGCTTTTCTCGAAGCCAACT: the binding signal (log2 normalized intensity) was -1.07.

Regarding AGTCTGTTATCCCTAGGAAGGATAAGAGCA, the binding signal (log2 normalized intensity) was -0.509.

Consider GCCTCCCCCTCTTTATCTCCTGGAATCCAA, for which the binding signal (log2 normalized intensity) came to 2.25.

Consider TACCTTTCTTATCATAAGTAAAAAGAGAGA, for which the binding signal (log2 normalized intensity) is 0.794.

Consider TAACAATGCTGATGGGGACCACAGAGAACT, for which the binding signal (log2 normalized intensity) is -1.12.

Turning to TCTCTGCCCTCTTCCCTCTACCTCTGTTCT, the binding signal (log2 normalized intensity) came to 2.16.

GCCAGGCAGGAAGGAGCCTGCTTTGCTGAG: the binding signal (log2 normalized intensity) is -0.938.

Consider GAACATGGACTTTGAACCTCTCTTCTTTTT, for which the binding signal (log2 normalized intensity) was found to be 7.25.

As to CTCGGGGAGCTGTGGGCCTCACACCCTCTA, the binding signal (log2 normalized intensity) is -1.22.

Turning to CATGGACTTTGAACCAAGATATGCTAACAT, the binding signal (log2 normalized intensity) stood at 4.81.

Turning to TCTTATCACCATCCCTGTTGCCTCATCTGA, the binding signal (log2 normalized intensity) turned out to be 0.899.

As for AGTGACTCAGAGCATATGTTGACCCGAGTG, the binding signal (log2 normalized intensity) amounted to 3.17.

Turning to GCTGACCTACATTCCACCCTCATTTGCTTG, the binding signal (log2 normalized intensity) is 0.587.

Consider AGCATCACCAGTGCAGCTGACCTACATTCC, for which the binding signal (log2 normalized intensity) is -0.443.

On to TCACTGTAACCTTTGCCCCCCAAGTTGAAG, for which the binding signal (log2 normalized intensity) was determined as 6.72.

For the sequence GCCTTATCACCATTCAGATAAATGGTGTAG, the binding signal (log2 normalized intensity) was -1.21.

As to TAAATGCCTCCCCCTCTTTATCTCCTGGAA, the binding signal (log2 normalized intensity) is 2.73.

As for CTGAGTCTGATAAGGAAGATAATGGGTCCG, the binding signal (log2 normalized intensity) amounted to 1.01.

Turning to CAGAGGTTTCGCAAGGACGTGACCTTTATG, the binding signal (log2 normalized intensity) was found to be 4.35.

As for CACACTGTACCCGTCCACCTTTGGATCCAG, the binding signal (log2 normalized intensity) was 2.76.

For CTATTCTCAGTGATATAAAACCTTTTTCTG, the binding signal (log2 normalized intensity) came to 0.697.

For TGACCTTTAGCCTGGCCATTTCTCAGGTTG, the binding signal (log2 normalized intensity) came out at 3.69.

Take TCCACTGAAAATGCCAAGTTTCAGGCTATG: the binding signal (log2 normalized intensity) is -0.635.

TAACGCCCGCCTAACCTTGAGGAGCCCTAT: the binding signal (log2 normalized intensity) was -1.21.

As to TTTGTCCCCCACCTGTGAAGATAAGCTGTC, the binding signal (log2 normalized intensity) worked out at 3.24.

For GAAAGTGAGGCCTGGCCGAGGTTGCCCAGC, the binding signal (log2 normalized intensity) is -0.404.

Take GCATCCTTCTCCTCCCCTCCCCCCAGTTCC: the binding signal (log2 normalized intensity) came out at 5.71.

Take AAATGAAAACACAGCTCACCACCTAGTAAA: the binding signal (log2 normalized intensity) is -1.01.

Consider ACTGGCTAAATCCCACCAAAGCCATGAGGC, for which the binding signal (log2 normalized intensity) came out at 0.562.

In the case of GAAACTGTTTCCAATAGGTTTGATTTCAGC, the binding signal (log2 normalized intensity) was -1.07.

For the sequence CCTCTAACTATGCAGTGTCCATGGTGACCA, the binding signal (log2 normalized intensity) was determined as 1.56.

Take AATGACTTGCCCAAGGGCATGGGAAGCAGT: the binding signal (log2 normalized intensity) is -1.06.

As for GCTGAACCTAGAGCTTCAGACGCCCTATGG, the binding signal (log2 normalized intensity) was -1.19.

For the sequence GTGCTCTCAGATAAGAGATGAGGAACTTGT, the binding signal (log2 normalized intensity) was -0.0712.

With GAATCTCAGGAGTGATGCCAGAAGATTAGT, the binding signal (log2 normalized intensity) is -0.634.

As for CTGTTTCAAAACTACAAAGTGGTTTTCTTG, the binding signal (log2 normalized intensity) came out at 1.

Consider CAAGTACCCTTTATCCCTCACAATCTTAAG, for which the binding signal (log2 normalized intensity) is 1.31.

Regarding TACTCTCATCACTTAGGATATTCCAAGGGG, the binding signal (log2 normalized intensity) is -0.378.

With TACCAAAGACTGAGCAGCTGGAGGGGGACT, the binding signal (log2 normalized intensity) was -1.12.

As for CTTTTGCTGACATGCTCTTGGAATGTTGAA, the binding signal (log2 normalized intensity) turned out to be 1.09.

In the case of GGAACGCGCGGGCAGGTTGCCCTTTCGGTG, the binding signal (log2 normalized intensity) came out at 3.35.

With CACACCGAGCACGGTGCAGGGAGGATATCC, the binding signal (log2 normalized intensity) is -1.16.

GGCAGCTTCAGGATGAAGGCTGCTGCCTGA: the binding signal (log2 normalized intensity) is -1.1.

In the case of TTTGAAGAAGACAAAACAGCGTACTGTGCT, the binding signal (log2 normalized intensity) was -1.2.

On to AGGTCACTCTTGCTAAGCTTTAGCAAAGAA, for which the binding signal (log2 normalized intensity) is -0.626.

In the case of TCCTCCAGCCCTCCTCTCTGTAGTCCTCAG, the binding signal (log2 normalized intensity) was 1.07.

As to GTAGGAGGAGATTGATGGTTTTATCAGCTG, the binding signal (log2 normalized intensity) was -1.16.

As to AAATCTTCTTTAAGCTATGTGGTGGAATGG, the binding signal (log2 normalized intensity) worked out at 2.23.

With TACTCAGCTAATCTAGAGACACTATGTGCA, the binding signal (log2 normalized intensity) is -0.721.

For CCAAGGCTTCCAATCCTGGAGAAGGAGCAC, the binding signal (log2 normalized intensity) was -1.11.

As for TGGATCGGGATGATCAATGTGTAGTTTCAC, the binding signal (log2 normalized intensity) was 1.04.

On to TTCCACCTCCCTCCATGCTGTAGATTGTGG, for which the binding signal (log2 normalized intensity) turned out to be 1.52.

Regarding TAGTCAGATTCCTCTGAGTCCTCTTCCCAA, the binding signal (log2 normalized intensity) was -0.656.

In the case of TATGGACAATGAAATTCAGGCTGAGGTGCT, the binding signal (log2 normalized intensity) was -1.18.

Take CAGATAATTACCTGGACTCTAGAGCCAGAC: the binding signal (log2 normalized intensity) was found to be 0.764.

In the case of CAAATGATCAAAGGTCGGTTTTAGGACAAC, the binding signal (log2 normalized intensity) was 4.69.

As to CTTTGCCCCAGAGGAAGACATCATATTTGT, the binding signal (log2 normalized intensity) was 1.28.

Regarding GTCCAAAGGTAAAAACTGGCTCTTATTTTT, the binding signal (log2 normalized intensity) was determined as 0.264.

AGGCCGGAGGTCTGGAATGTGGAGAATGGC: the binding signal (log2 normalized intensity) was -1.22.

For TCTCTCCTGGTTTGGGGCCTAAATGCTTCT, the binding signal (log2 normalized intensity) amounted to 0.749.

Values taken from article PMC10726135.
